Test results: patent US11116735B2, “Use of substituted benzylideneguanidine derivatives as synergists for polymyxin antibiotics” (GUANGZHOU INSIGHTER BIOTECHNOLOGY CO., LTD., priority 2015, dated 2021)

Test system: various colistin sulfate-resistant Gram-negative bacteria
Assay: MIC by doubling dilution, summary over resistant species
Conditions: various concentrations of compound 3

CC(C)Oc1ccc(C=NN=C(N)NN=Cc2ccc(OC(C)C)cc2)cc1 [Compound 3]
Change of the MIC of colistin sulfate where compound 3 was employed: decreased to various extents, in an obvious dosage-dependent way
